Measured values as given in a collection of fitness landscapes (doi:10.1016/j.celrep.2020.107928).
Over roughly 81,000 sequences, “one-hybrid fitness for binding NBS DNA” has its median near -0.1; the highest 2% begin near 0.36. The list shows a part of the results.

B1: Caulobacter ParB omega fusion; a variant is named by its letters at X, in order, B8GW30 (parent)
chain: MESVVVGEPGMSEGRRGLGRGLSALLGEVDAAPAQAPGEQLGGSREAPIEILQRNPDQPRRTFREEDLEDLSNSIREKGVLQPILVRPSPDTAGEYQIVAGERAWRAAQRAGLKTVPIMVRELDDLAVLEIGIIENVQRADLNVLEEALSYKVLMEKFERTQENIAQTIGKSXSHVANXMRLLXLPDEVQSYLVSGELTAXHARAIAAAADPVALAKQIIEGGLSVRETEALARKAPNLSAGKSKGGRPPRVKDTDTQALESDLSSVLGLDVSIDHRGSTGTLTITYATLEQLDDLCNRLTRGI

Variants of: B1
Test: one-hybrid fitness for binding NBS DNA (the Noc-binding site; scaled: cognate 1, non-cognate 0); higher = stronger binding
Settings: with NBS DNA site
How it was run: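 Pre- and post-selection plasmids were Illumina-sequenced, three replicate libraries were pooled, and any variant with under 10 reads was removed. The libraries were Caulobacter ParB with four specificity codons randomised, selected in E. coli USO through a HIS3 reporter whose site is 19 bp from the promoter. Cells grew 48 hours at 37°C on M9 without histidine, with 0.1 mM IPTG and 5 mM 3-AT. Fitness is the log change in variant-to-wild-type read ratio, rescaled against cognate and non-cognate.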

one-hybrid fitness for binding NBS DNA, 0.477:
QCMT

one-hybrid fitness for binding NBS DNA, 0.281:
RKNC

one-hybrid fitness for binding NBS DNA, ≤ 0.2:
YPSD
SSRC
ISPK
GAVR
KKGD
NVCW
LWPR
VAPY
KISD
NACT
HCLQ
EKGR
SCSF
LSHN
RPQW
CPTK
VGHH
PSLR
HYVE
DYSR
HRNC
TCRM
GIYR
AMYG
CKKV
SWSS
QAMV
VLLY
KAIT
YTPC
AMFN
WKIS
WKDG
VYWG
RMMK
EQWS
QIWP
IYGT
VKAC
IGLW
NFGR
MADF
SNGQ
RINY
TRPC
QNRL
KIRC
KRHW
AIIY
EMMY
VTFS
SMKH
GTVD
HERS
RTLD
IHWG
GACL
MLCF
LCWT
FNDL
VRRY
AMCR
TTQL
YMFG
RNQT
YQQG
IGPM
PPPD
MEYT
DAKG
LRWC
YYER
WKER
THFE
PPTG
GCMC
LGKY
FMVG
NYTW
WQTA
CSDA
LKVQ
LDRY
DCIG
YSPL
LPKF
IACN
WNLY
MIYW
ECHV
ATAG
QVQC
ADVN
TEYY
PRQA
LRPL
VFVQ
GPQK
ATKI
FCIV
NCSD
MAIA
ERSS
NADD
DGMR
RQTN
KVAV
CSKY
TAPH
TSCN
MPIL
TSKV
WSPY
MQPR
SCHC
GSVE
QHAY
MSPT
PVRL
YDNV
HSVC
PMRA
LYGG
RGDN
LGIF
YLGR
RDVC
YDPL
CGRF
DHCF
SASD
NAKQ
QWRS
CEVT
PERE
WKLW
YHLR
HSKN
QGVS
NTWG
RHHQ
ILYC
SYIV
LKPE
LALP
PGNC
NKLS
PYAS
WQAR
YRHW
DCDD
VAFA
TFGC
RNEC
RKYY
CHHF
WRVA
CREE
TCEG
NFHF
NHLA
TDDD
VVAG
RGGL
PVWW
RFDN
PKQR
NCVD
KWMG
LPTV
LLIT
GDNI
RLTN
TRMG
LATW
VVVF
KDHR
FPCC
LRAS
CNTV
PEVR
RWCD
DPWS
RHSH
MDNG
IAPH
ALEW
PYAT
WRKG
EAVG
QVFG
GVNT
WTLN
TGTR
APPD
VLGG
PFHL
KNFR
VDYV
LKQG
ECYC
DVPC
CFES
SDIS
SQAE
HKRQ
VTCL
VLAY
WPES
WTVC
MACA
WPQC
LGSF
ICRT
PGSW
ECGS
SLDT
VWSR
GAMW
MQCS
ACHH
SMAR
HGAN
KWHC
YGSW
EKYT
IYHW
HPPD
VSPD
NEAL
NLRC
FSLF
RGQA
QVYG
QGII
CAWG
IFNC
TMRG
HYMY
LDAF
NLCV
LDVT
QNYY
VPFS
DRFN
NETK
YQSD
AFSL
RSAK
CRPA
RITA
LPIY
QLAF
RIES
TYNC
SMFC
KERT
DWHY
AFNG
YRLD
KLAV
ASSC
TCNW
RTMN
KHPR
RMSP
LVYY
GLCG
FEKL
QDST
DFNL
LGQV
VLQN
QLIC
RACH
NNNR
TETI
FCHS
QLRE
TADK
VQYD
LFYN
MPAI
HMSS
NGCC
DLNM
TEEG
FMSD
QEEP
AGVT
SDSS
LYTW
LFFK
VLAH
LTGM
GKDS
QMHL

one-hybrid fitness for binding NBS DNA, 0.476:
QQHS

one-hybrid fitness for binding NBS DNA, 0.24:
RGKT

one-hybrid fitness for binding NBS DNA, 0.473:
QQYT

one-hybrid fitness for binding NBS DNA, 0.435:
RKFS

one-hybrid fitness for binding NBS DNA, 0.29:
KTKS

one-hybrid fitness for binding NBS DNA, 0.429:
RVTR

one-hybrid fitness for binding NBS DNA, 0.658:
QCRA
